In patent publication US20260209353A1 (BINACEA PHARMA, published 2026):
Residue numbers refer to the chain shown, from its start.

B1: anti-CD8 VHH antibody clone 3A8 (bivalent VHH-Fc) (Fc fusion)
chain: QVQLQESGGGLVQAGGSLRLSCAASGFTFDEYAIGWFRQAPGKEREGVSCLRVSDGRTYYPDSVKGRFAISSDNAKNTVYLQMNNLKPEDTAVYYCASGSYYGCTVDDYDFWGQGTQVTVSS[here human IgG1 Fc without letters]
notes: VHH fused to the N-terminus of hinge and Fc of human IgG1; bivalent; made in CHO cells
B2: anti-CD8 VHH antibody clone 3A4 (bivalent VHH-Fc) (Fc fusion)
chain: B1 chain with D107H
notes: VHH fused to hinge and Fc of human IgG1; bivalent
B3: anti-CD8 VHH antibody clone 3D10 (bivalent VHH-Fc) (Fc fusion)
chain: B1 chain with D107H, Q117L
notes: as for B2
B4: anti-CD8 VHH antibody clone 4D5 (bivalent VHH-Fc) (Fc fusion)
chain: B1 chain with D30N, D62Y, S72N, K76N
notes: as for B2
B5: humanized anti-CD8 VHH antibody clone 3A8-hu01 (bivalent VHH-Fc) (Fc fusion)
chain: B1 chain with Q1E, Q5V, A14P, A69T, S72R, A75S, N85S, K87R, P88A
B6: anti-CD8 VHH antibody clone 1A5 (bivalent VHH-Fc) (Fc fusion)
chain: QVQLVESGGGLVQAGGSLRLSCAASGFTFDDYAIGWFRQAPGKEREGVSCISNIDGSTYYADSVKGRFTISSDNAKNTVYLQMNSLKPEDTAVYYCAAEGLHSCRDLYYGMDYWGKGTLVTVSS[here human IgG1 Fc without letters]
notes: as for B2
B7: anti-CD8 VHH antibody clone 2G3 (bivalent VHH-Fc) (Fc fusion)
chain: B6 chain with V5Q, A14P, R19K, D30Y, S72T
notes: as for B2
B8: anti-CD8 VHH antibody clone 4H5 (bivalent VHH-Fc) (Fc fusion)
chain: QVQLQESGGGLVQAGGSLRLSCAASGLTVNSDHMAWFRQAPGKWRDFVAAISGNGGSTYYADSVKGRFTISRDDAKNTVYLQMNSLKPEDTAVYTCAADRQVWRAASYHDYDYDSWGQGTLVTVSS[here human IgG1 Fc without letters]
notes: as for B2
B9: anti-CD8 VHH antibody clone 4C9 (bivalent VHH-Fc) (Fc fusion)
chain: B8 chain with Q3K, Q5E, G16D, N30S, D46E, D74N, S85N, T95S, A105V, L121Q
notes: as for B2
B10: anti-CD8 VHH antibody clone 3D12 (bivalent VHH-Fc) (Fc fusion)
chain: QVQLVESGGGLVQAGGSLRLSCAASGNIDEIASIRAMDWYRQAPGRQRELVAHIARNGITDYKDFVKGRFTISRDNAKNTVYLQMNSLKPEDTAVYYCNTVPWYGTWGQGTQVTVSS[here human IgG1 Fc without letters]
notes: as for B2
B11: anti-CD8 VHH antibody clone 3G7 (bivalent VHH-Fc) (Fc fusion)
chain: QVQLQESGGGLVQAGGSLRLSCAASGSIAEIASLRAMDWYRQAPGKRRELVAHIARNDVTNYADDVKGRFTISRDNAKNAVYLQMNNLKPEDTAVYYCNTVPWYGTWGQGTLVTVSS[here human IgG1 Fc without letters]
notes: as for B2

The binders below were run against T1, ECD of human CD8A/B heterodimer with His tag (recombinant CD8 alpha and beta heterodimer protein, Sino … (human, UniProt P01732 22-182; P10966 22-170) (assay: BLI (Gator Prime), antibody captured on anti-human IgG Fc probe, 1:1 fit).
T1 construct: extracellular domain; Bought from Sino Biological US Inc; also called Human CD8A/B with His tag; hu-CD8A/B heterodimer; not shown: poly histidine tag at the C-terminus
T1 sequence (P01732 22-182, chain 1 of 2): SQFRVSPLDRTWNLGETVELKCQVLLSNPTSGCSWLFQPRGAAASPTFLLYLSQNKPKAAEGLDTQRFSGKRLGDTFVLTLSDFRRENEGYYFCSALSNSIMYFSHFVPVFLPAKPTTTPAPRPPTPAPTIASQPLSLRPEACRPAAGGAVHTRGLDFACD
T1 sequence (P10966 22-170, chain 2 of 2, further chain): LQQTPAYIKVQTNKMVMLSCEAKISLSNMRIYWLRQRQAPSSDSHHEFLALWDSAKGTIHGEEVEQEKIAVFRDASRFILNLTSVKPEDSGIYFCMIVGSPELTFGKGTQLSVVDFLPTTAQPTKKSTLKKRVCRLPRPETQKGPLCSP
Method: Biolayer interferometry was used to measure the association and dissociation constants for the binding kinetics of the bivalent anti-human CD8A VHH antibodies. The binding kinetics was measured on a Gator Prime system (Gator Bio, Inc.) at 30° C. and analyzed with the Gator Prime software. Anti-human-IgG Fc (HFC) probe (Gator Bio, Inc.) was used to capture the anti-hu-CD8 VHH antibodies or control antibodies. A kinetic buffer only well was set as a reference well for subtraction during data processing. Data were fitted with a 1:1 Langmuir model for association and dissociation using Rmax linked global fitting for each antibody-antigen binding. Human CD8A/B with His tag is recombinant CD8 alpha and beta heterodimer protein with a poly histidine tag fused to C-terminus (Sino Biological US Inc.).
B1 showed a Kd of 8.84 nM, a koff of 0.00266 s⁻¹ and a kon of 301000 M⁻¹ s⁻¹.
B2 showed a Kd of 8.59 nM, a koff of 0.00236 s⁻¹ and a kon of 274000 M⁻¹ s⁻¹.
Binder B3 has a Kd of 8.25 nM, a koff of 0.00226 s⁻¹ and a kon of 274000 M⁻¹ s⁻¹.
Work on B4 yielded a Kd of 6.08 nM, a koff of 0.00193 s⁻¹ and a kon of 318000 M⁻¹ s⁻¹.
In the case of B5, the Kd is reported as 8.7 nM, the koff is reported as 0.00296 s⁻¹ and the kon is reported as 340000 M⁻¹ s⁻¹.
For B6, the Kd was 11.8 nM, the koff was 0.00282 s⁻¹ and the kon was 240000 M⁻¹ s⁻¹.
B7 showed a Kd of 44.5 nM, a koff of 0.00953 s⁻¹ and a kon of 214000 M⁻¹ s⁻¹.
B8 gave a Kd of 43.6 nM, a koff of 0.00786 s⁻¹ and a kon of 180000 M⁻¹ s⁻¹.
In the case of B9, the Kd is reported as 3.47 nM, the koff is reported as 0.00116 s⁻¹ and the kon is reported as 334000 M⁻¹ s⁻¹.
Binder B10 has a Kd of 8.38 nM, a koff of 0.00313 s⁻¹ and a kon of 373000 M⁻¹ s⁻¹.
B11 was tested, and the Kd was 23.8 nM, the koff was 0.00507 s⁻¹ and the kon was 213000 M⁻¹ s⁻¹.

The binders below were run against T2, recombinant cyno-CD8A ECD polypeptide fused at its C-terminus to a human Fc tag (cynomolgus monkey) (assay: BLI (Gator Prime), cyno CD8A ECD-Fc as antigen).
T2 construct: Bought from Sino Biological US Inc; also called ECD of cynomolgus monkey CD8A with Fc tag; not shown: human Fc tag
Method: To understand the species cross-reactivity to cyno-CD8A, the binding kinetics of anti-CD8 VHH-Fc antibodies to cyno-CD8A were also measured on Gator Prime. A recombinant cyno-CD8A ECD polypeptide of SEQ ID NO: 108 (UniProt A0A2K5ULI8) fused at its C-terminus to a human Fc tag was used as antigen (Sino Biological US Inc.).
For B1, the Kd was 0.0921 nM, the koff was 0.000102 s⁻¹ and the kon was 1.11e+06 M⁻¹ s⁻¹.
Binder B2 has a Kd of 0.568 nM, a koff of 0.000301 s⁻¹ and a kon of 530000 M⁻¹ s⁻¹.
In the case of B3, the Kd is reported as 0.795 nM, the koff is reported as 0.000432 s⁻¹ and the kon is reported as 544000 M⁻¹ s⁻¹.
Work on B4 yielded a Kd of 0.143 nM, a koff of 0.000128 s⁻¹ and a kon of 898000 M⁻¹ s⁻¹.
B5 gave a Kd of 0.598 nM, a koff of 0.000124 s⁻¹ and a kon of 207000 M⁻¹ s⁻¹.
For B6, the koff was 0.00282 s⁻¹ and the kon was 240000 M⁻¹ s⁻¹.
Work on B7 yielded a Kd of 44.5 nM, a koff of 0.00953 s⁻¹ and a kon of 214000 M⁻¹ s⁻¹.
B8 was tested, and the Kd was 43.6 nM, the koff was 0.00786 s⁻¹ and the kon was 180000 M⁻¹ s⁻¹.
Binder B9 has a Kd of 0.0965 nM, a koff of 0.000102 s⁻¹ and a kon of 1.05e+06 M⁻¹ s⁻¹.
For B10, the Kd was 0.0547 nM, the koff was 0.000127 s⁻¹ and the kon was 2.32e+06 M⁻¹ s⁻¹.
B11 was tested, and the Kd was 0.937 nM, the koff was 0.000432 s⁻¹ and the kon was 461000 M⁻¹ s⁻¹.
